Whole data set: some 110,000 compounds, median “z-score” near -0.1, cut for the highest 2% near 2. Some of the results follow. Activity calls are given as the source filed them.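 The calls were made as follows: active = z-score in the third read window above 3 or below -3; inactive = the rest.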
target: Metabotropic glutamate receptor 8 (Rattus norvegicus) (UniProt P70579); test: rat mGluR8 modulators via GIRK flux, primary screen, cell-based, thallium flux, HTS (AID 488969); settings: HEK293 rat mGluR8, GIRK (G protein-gated inwardly rectifying potassium channel) thallium flux, FluoZin2; at 10 µM; stronger effect = higher value; submaximal glutamate (EC20) added with thallium
UniProt P70579, sequence (P70579 whole entry, looked up): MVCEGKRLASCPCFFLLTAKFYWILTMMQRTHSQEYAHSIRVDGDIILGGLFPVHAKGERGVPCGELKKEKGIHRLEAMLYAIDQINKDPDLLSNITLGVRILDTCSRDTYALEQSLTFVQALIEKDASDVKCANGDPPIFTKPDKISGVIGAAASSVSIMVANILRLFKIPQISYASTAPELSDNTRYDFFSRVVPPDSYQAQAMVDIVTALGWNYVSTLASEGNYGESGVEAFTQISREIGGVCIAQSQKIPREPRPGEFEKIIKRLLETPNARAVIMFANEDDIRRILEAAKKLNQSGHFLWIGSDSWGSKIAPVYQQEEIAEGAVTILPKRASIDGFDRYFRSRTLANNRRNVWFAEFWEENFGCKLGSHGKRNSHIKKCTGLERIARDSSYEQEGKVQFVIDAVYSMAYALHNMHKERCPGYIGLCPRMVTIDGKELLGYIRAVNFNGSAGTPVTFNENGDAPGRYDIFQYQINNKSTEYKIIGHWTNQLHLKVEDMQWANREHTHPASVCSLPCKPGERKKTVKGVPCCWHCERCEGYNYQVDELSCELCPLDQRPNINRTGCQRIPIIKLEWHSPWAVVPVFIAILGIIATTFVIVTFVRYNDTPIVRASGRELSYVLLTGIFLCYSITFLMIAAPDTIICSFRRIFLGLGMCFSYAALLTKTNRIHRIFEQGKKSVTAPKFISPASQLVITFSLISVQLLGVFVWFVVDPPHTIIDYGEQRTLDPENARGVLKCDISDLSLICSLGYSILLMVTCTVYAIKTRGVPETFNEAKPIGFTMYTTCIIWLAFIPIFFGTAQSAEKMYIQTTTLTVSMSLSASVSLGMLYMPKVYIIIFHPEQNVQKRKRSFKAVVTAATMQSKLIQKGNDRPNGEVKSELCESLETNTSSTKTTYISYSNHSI

Compound | z-score
CCC(=O)N1CCN(c2nc(-c3ccc(Cl)cc3)cs2)CC1 | -0.503
COc1ccccc1OCc1nnc(SCC(=O)N2CCCCC2)n1-c1ccccc1 | 1.31
CCc1nnc(NC(=O)c2cc(S(=O)(=O)N3CCN(c4ccccc4)CC3)ccc2Cl)s1 | -0.438
O=C(NC1CCCCCC1)C1CCN(S(=O)(=O)c2cccc3cccnc23)CC1 | -0.286
N#Cc1c(NC(=O)c2cnccn2)sc2c1CCCC2 | -0.0643
CC(NC(=O)C12CC3CC(C1)CC(n1cncn1)(C3)C2)C12CC3CC(CC(C3)C1)C2 (stereo not drawn) | -0.133
CCn1c(SCC(=O)Nc2nc3ccc(C)cc3s2)nc2c(c1=O)SC(C)C2 (stereo not drawn) | -1.03
CCSc1nnc(-c2ccncc2)o1 | -0.0123
CSc1nsc(SC)c1NC(=O)N1CCCC1 | 0.0681
CC(=O)c1ccc(NC(=O)CSCCO)cc1 | 0.274
Cc1ccccc1Nc1nc(N)nc(CSCC(=O)Nc2cccc(Br)c2)n1 | -0.135
CC(C)(C)c1ccc(-c2nc(C#N)c(NCc3cccnc3)o2)cc1 | -0.284
COc1ccc(C)cc1N(C(=O)c1ccccc1F)c1nc2ccccc2s1 | -0.537
O=C(NCc1ccco1)c1cc(S(=O)(=O)N2CCOCC2)ccc1Cl | 0.348
COc1ccc(N(C)C(=O)c2cc3c(Cl)nc4ccccc4c3s2)cc1 | -0.115
CCOC(=O)C(CC)Sc1nnc2c3cc(C)ccc3n(C)c2n1 (stereo not drawn) | -0.798
Cc1n[nH]c(C)c1C(=O)CC1(O)C(=O)N(Cc2ccccc2)c2ccc(Br)cc21 (stereo not drawn) | -0.471
CCn1c(SCC(=O)Nc2ccc(OC)cc2)nnc1-c1ccco1 | -0.0548
C=CCn1c(=O)c2c(C)c(C)sc2n2c(Nc3ccccc3)nnc12 | -0.666
CCCCOc1ccc(N2C(=O)CC(NCCc3ccc(S(N)(=O)=O)cc3)C2=O)cc1 (stereo not drawn) | 0.405
C=CCOc1ccc(Br)cc1CNCCCN1CCOCC1 | -0.208
CCOC(=O)c1c(-c2ccccc2)csc1NC(=O)/C(C#N)=C/c1ccc(O)c(OC)c1 | 0.0797

Compound | z-score
C=CCn1c(CCC(=O)O)ccc1-c1ccccc1 | -0.312
COc1cc(S(=O)(=O)N2CCN(c3ccc(F)cc3)CC2)ccc1Cl | 0.617
CCOC(=O)C(Cc1ccccc1)NS(=O)(=O)c1ccc(NC(C)=O)cc1 (stereo not drawn) | -0.022
COc1ccc(-c2csc(N3C(=O)C4C5c6ccccc6C(c6ccccc65)[C@@H]4C3=O)n2)cc1 (stereo partly drawn) | 0.33
Fc1cccc(NC(=S)NCc2cccnc2)c1 | 0.461
COc1ccc(C(=O)/C(C#N)=N/Nc2ccccc2[N+](=O)[O-])cc1 | 0.502
O=C(Nc1ccccn1)C(=O)N1CCCCC1 | 0.0768
Cc1ccc(N(CC(O)CN2CCOCC2)S(=O)(=O)c2ccc3ccccc3c2)cc1 (stereo not drawn) | 1.8
Cc1nc2ccc(NC(=O)c3cccc(S(=O)(=O)N(C)c4ccccc4)c3)cc2s1 | -0.293
Cc1nc2ccccc2n1/C(=N/S(=O)(=O)c1ccc(Br)cc1)c1ccccc1 | -0.603
Cn1nc(C(=O)OCC(=O)N2CCc3ccccc32)c2ccccc2c1=O | -2.23
C=CC(=O)NCCCc1cc(C(C)(C)C)c(O)c(C(C)(C)C)c1 | -0.193
CC1CC(C)CN(C(=O)CSC2=Nc3ccccc3C3=NC(Cc4c[nH]c5ccccc45)C(=O)N23)C1 (stereo not drawn) | -0.201
COc1ccc2nc(SCC(N)=O)cc(C)c2c1 | -0.286
C=CCn1c(SCC(=O)c2cccs2)nc2sc(C)c(C)c2c1=O | -0.231
O=S(=O)(c1ccccc1)N1CCN(C2CCCCCCC2)CC1 | 0.777
CCCC(=O)Nc1ccc(C(=O)N/N=C/c2ccc[nH]2)cc1 | -0.169
Cc1ccccc1OCC(=O)Nc1ccc2c(c1)Cc1ccccc1-2 | -0.198
C=CCN1C(=O)/C(=C/c2ccc(N(C)C)cc2)S/C1=N\c1nnc(CC)s1 | -0.0819
O=C(NCc1ccc2c(c1)OCO2)c1ccc(=O)[nH]c1 | 0.293
C(=N\n1cnnc1SCc1ccccc1)/c1ccco1 | 0.0511
O=C(O)Cc1ccc(NC(=S)Nc2cccc(Cl)c2Cl)cc1 | 0.436

Compound | z-score
O=C(COC(=O)c1ccccc1NC(=O)c1ccco1)Nc1ccc2c(c1)OC(F)(F)O2 | 0.0797
CSCCC1NC2(C(=O)Nc3c2ccc(Cl)c3C)[C@@H]2C(=O)N(C3CCCC3)C(=O)[C@H]12 (stereo partly drawn) | 1.21
O=S(=O)(Cc1ccccc1)N1CCc2ccccc21 | active: -4.91
COc1cccc(-c2nnc(SCC(=O)NCc3ccc4c(c3)OCO4)n2Cc2ccco2)c1 | -0.486
O=C(c1ccc([N+](=O)[O-])cc1)N1CCOC12CCN(c1ncc(C(F)(F)F)cc1Cl)CC2 | -0.0523
CCn1nnnc1-c1ccc(OC)c(S(=O)(=O)Nc2ccc(OC)cc2)c1 | 0.233
CCOC(=O)c1oc2nc(C)c3c(c2c1N)CC(C)(C)OC3 | 0.0983
COc1cc2c(cc1OC)C(c1cccs1)CC(=O)N2 (stereo not drawn) | -0.92
Cc1cc(NC(=O)/C=C/c2cccc(F)c2)n(-c2nc3ccccc3[nH]2)n1 | 0.306
Cc1nnc(Sc2c(N)n(C)c(=O)[nH]c2=O)s1 | -0.32
CCCn1c(SC(C(=O)Nc2cccc(OC)c2)c2ccccc2)nc2ccccc2c1=O (stereo not drawn) | -0.276
CC(C)(C)n1nnnc1C(c1ccc(C(F)(F)F)cc1)N(Cc1ccc(F)cc1)Cc1ccco1 (stereo not drawn) | -0.353
Cc1cc(C)cc(-n2c(O)c(C=NC3CCS(=O)(=O)C3)c3ccccc3c2=O)c1 (stereo not drawn) | -0.376
c1ccc(NC2=Nc3ccccc3CC2)cc1 | 0.639
COc1cc(C(=S)N2CCOCC2)cc(OC)c1OC(=O)c1cc([N+](=O)[O-])c(C)c([N+](=O)[O-])c1 | 0.321
c1ccc(CCN2CN=C(Nc3nc4ccccc4o3)NC2)cc1 | -0.027
Cc1n[nH]c(C)c1CCOc1ccc(C(C)C)cc1 | 0.611
COc1ccc(N2C(=O)CC(N3CCCC4CCCCC43)C2=O)cc1 (stereo not drawn) | 1.86
COC(=O)CSc1nnc(C)c(=O)[nH]1 | 0.343
CCOC(=O)c1ccc(NC(=O)CSc2nnc(CNc3ccc(C)cc3)n2C)cc1 | -0.198
COc1ccc(-n2nnc3c(SCC(=O)NCc4ccco4)ncnc32)cc1 | -0.199
COc1ccc(Cl)cc1N(CC(=O)N1CCN(Cc2ccccc2)CC1)S(C)(=O)=O | -0.117

Compound | z-score
O=C(C1=NN[C@@H]2C(=O)N(c3ccccc3C(F)(F)F)C(=O)[C@H]12)c1ccc2ccccc2n1 | 0.641
O=C(c1ccccc1F)N1CCN(c2ccccc2)CC1 | 0.0562
COCCOC(=O)C1=C(N)Oc2c(oc(CO)cc2=O)C1c1ccccc1F (stereo not drawn) | -0.347
CCOc1ccc(CC(=O)C2C(=O)CC(C)(C)CC2=O)cc1OCC | 0.508
COc1ccc(C(=O)OC(C(=O)c2ccccc2)c2ccccc2)cc1 (stereo not drawn) | -0.0598
CC(=O)N(C)c1ccc(OCC(O)Cn2c3ccc(Cl)cc3c3cc(Cl)ccc32)cc1 (stereo not drawn) | 0.188
O=C(CSc1ccc(-c2ccco2)nn1)NCc1ccccc1Cl | -0.517
CCn1c(-c2ccc(N)cc2)nc2ccccc21 | -0.0962
Cc1ccc(-c2n[nH]c(=O)c3ccccc23)cc1S(=O)(=O)N(C)CCO | -0.15
O=[N+]([O-])c1cnccc1Nc1cccc(F)c1 | 0.28
O=C1CC(c2ccccc2)CC(O)=C1C=NCc1ccc(Cl)cc1 (stereo not drawn) | -0.0336
Nc1ccc(Nc2ccncc2[N+](=O)[O-])cc1 | 0.0617
COc1cc(/C=N/NC(=O)COc2ccc(Cl)cc2)ccc1OS(=O)(=O)c1ccc(C)cc1 | -0.0849
COc1cc(/C=N/O)cc(Br)c1OCc1cccc(Cl)c1 | -0.0243
Cc1ccc2[nH]c(=O)c(CNS(=O)(=O)c3ccccc3)c(-c3ccccc3)c2c1 | -0.494
c1ccc(SCc2nc(-c3ccncc3)no2)cc1 | -0.13
O=C(O)c1cnc(-c2ccccc2)nc1Sc1ccccc1 | -0.111
CCOc1cc(/C=C2\SC(=S)N(Nc3ccccc3)C2=O)ccc1O | -0.154
Cc1ccc(S(=O)(=O)Nc2ccc(Cl)cc2)cc1NC(=O)c1cc2c(s1)CCCC2 | -0.413
CCN1C(=O)c2ccccc2S(=O)c2ccc(C(=O)NC3CC3)cc21 (stereo not drawn) | -0.434
COc1ccc2cc(C(=O)NCC(=O)O)sc(=O)c2c1OC | active: 3.42
CCC(=O)N/N=C/c1ccc(OS(=O)(=O)c2ccccc2)cc1 | -0.163

Compound | z-score
N#CC1=C(N)SC(N)=C(C#N)C1c1c(Cl)cccc1Cl | -1.74
Cc1c(NC(=O)C(C)OC(=O)CNC(=O)c2ccc(C(C)(C)C)cc2)c(=O)n(-c2ccccc2)n1C (stereo not drawn) | -0.119
COC(=O)c1ccc2c(c1)SC1=C(CCCC1=O)N2 | 0.734
Cc1cc(C(=O)NCCCN2CC(C)CC(C)C2)n(-c2ccccc2)n1 (stereo not drawn) | -0.011
Cc1ccc(OCC(=O)NCc2ccco2)cc1C | -0.113
Cc1ccc2c(c1)nnn2C1CCN(CC(=O)N2CCN(c3ccc(F)cc3)CC2)CC1 | -0.916
Cc1ccc(NC(=O)CC2Oc3ccc(C)cc3NC2=O)cc1 (stereo not drawn) | 0.104
O=C(Nc1ccccc1)NC1CCN(CCCN2C(=O)c3ccccc3C2=O)CC1 | 0.296
Cc1ccc2nc(N3CCN(S(=O)(=O)c4ccc(C)c(Cl)c4)CC3)c(C#N)cc2c1 | 0.168
Nn1c(SCC(=O)N2CCc3ccccc3C2)nnc1-c1cccs1 | -0.00306
CS(=O)(=O)N1CCN(c2ccccc2NC(=O)c2cccs2)CC1 | -0.148
O=C(CSc1n[nH]c(-c2ccccc2)n1)c1ccccc1 | -0.568
O=C(Nc1ccc(F)cc1)NC1(C(=O)NCc2cccs2)CCCCC1 | 0.4
Cn1nc(-c2ccccc2)c2nc3ccccc3nc21 | -0.137
CCC(=O)Nc1cc2c(cc1C(=O)c1ccccc1)OCCO2 | -0.157
O=[N+]([O-])c1ccc2[nH]nc(-c3ccccc3)c2c1 | -0.301
Cc1ccc(S(=O)(=O)N/N=C/c2ccc(OCC(=O)Nc3ccccc3Cl)cc2)cc1 | -0.134
Cc1cc(C)c(NC(=O)C2CC(=O)N(c3ccc4c(c3)OCCO4)C2)c(C)c1 (stereo not drawn) | -0.45
O=C(Nc1ccc(Cl)cc1)c1csc(-c2ccccc2)n1 | -0.22
Cc1ccc(C(=O)COC(=O)CNC(=O)COc2ccccc2C)cc1C | -0.594

Reference: PubChem BioAssay AID488969 (Vanderbilt High Throughput Screening Facility, 2010)
